Test results from PubChem BioAssay AID504706 (National Center for Advancing Translational Sciences (NCATS), 2011).
Hit rate of the full screen: of about 320,000 compounds, about 200 (0.062%) were called active. Inconclusive results, whose numbers are uncertain, are shown with a selection of clear calls. Calls follow the shape of the dose curve; as a rule, active = well fitted activation curve with a large enough effect; inconclusive = small, poorly fitted or top-dose-only effect; inactive = no such curve, though single readings can be large or run the other way. No potency is given beside an inconclusive call; the fits are too rough.

assay: qHTS assay for re-activators of p53 using a Luc reporter; conditions: H1299 p53-A138V BP100-luciferase reporter, luminescence, 24 h; series mostly up to 92.2 µM; also: nearly all actives have a fitted effect of over 45% in size
Summary of the method: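 p53-null H1299 cells stably carrying temperature-sensitive p53-A138V and a BP100-luciferase reporter were pinned with compounds (4-point, 1:5 series) and held 24 hrs at 37 deg C. Luminescence was read 10 min after detection reagent.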
Potency is read from the fitted curve at half-maximal effect; tags tell the direction and shape of the fitted curve.

Row | SMILES | Potency
1 | CC(=O)Nc1ccc(NC(=O)CSc2nnc(-c3ccc4c(c3)OCO4)o2)cc1 | inactive
2 | COc1ccc(C(=O)NCC(=O)N/N=C/c2ccc([N+](=O)[O-])o2)cc1OC | inconclusive [activator, single point]
3 | O=C(O)c1ccc(NNC(=S)Nc2cc(C(F)(F)F)ccc2Cl)cc1 | inconclusive [activator, partial curve, poor fit]
4 | Cc1c(C#N)c(NC(=O)CCl)n(Cc2ccccc2)c1C | inactive
5 | CCCCNC(=S)Nc1ccc2cn[nH]c2c1 | inconclusive [activator, partial curve, poor fit]
6 | CCOC(=O)c1c(C)[nH]c(C(=O)OCc2ccc(F)cc2)c1C | inconclusive [activator, partial curve, poor fit]
7 | Cc1ccc(CCNC(=O)NC(C)(C)C)cc1 | inconclusive [activator, partial curve, poor fit]
8 | Cc1ccc(-n2cc(-c3ccccc3)[nH]c2=O)cc1F | inconclusive [activator, partial curve, poor fit]
9 | Brc1ccc(OCc2nc3ccccc3[nH]2)cc1 | inconclusive [activator, full curve, poor fit]
10 | Nn1c(SCC(=O)Nc2ccc(N3CCOCC3)cc2)nnc1C1CC1 | inconclusive [activator, single point]
11 | CCC(=O)Nc1cccc(NC(=S)NC(=O)c2cccc(C)c2)c1 | inconclusive [activator, partial curve, poor fit]
12 | Oc1ccc(N=Cc2ccc(O)c(O)c2)cc1 | inconclusive [activator, partial curve, poor fit]
13 | C=C[C@@H]1c2c(F)cccc2N(S(=O)(=O)c2ccc(C)cc2)[C@H](c2ccc(OC(C)=O)cc2)C1(C#N)C#N | inactive
14 | Cc1cc(C)cc(N(CC(=O)N/N=C/c2ccncc2)S(=O)(=O)c2ccccc2)c1 | inactive
15 | CC(=O)Nc1ccc(Nc2cc(C)nc3c(-c4ccc(Cl)cc4)cnn23)cc1 | inconclusive [activator, partial curve, poor fit]
16 | O=c1c(-c2ccc(F)cc2)coc2c3c(ccc12)OCCO3 | inconclusive [activator, full curve, poor fit]
17 | CCCc1cc(C(=O)NNC(=S)NCC)c2ccccc2n1 | inactive
18 | NC(=O)N/N=C/c1ccccc1OC(=O)c1cc2ccccc2oc1=O | inconclusive [activator, partial curve, poor fit]
19 | CCOc1ccc(OCc2cccc(C(=O)N3CCCC3)c2)cc1 | inconclusive [activator, partial curve, poor fit]
20 | Cc1ccc2nc(-c3ccc(NC(=O)CSc4nc(N)cc(=O)[nH]4)cc3)sc2c1 | inconclusive [activator, full curve, poor fit]
21 | Cc1sc2nc3ccc(N4CCCC4)nn3c(=O)c2c1C | inactive
22 | O=C(CCCOc1ccc(Cl)cc1Cl)Nc1nnc(C2CC2)s1 | inactive
23 | CCC(C)(C)n1nnnc1C(c1cc2ccc(OC)cc2[nH]c1=O)N1CCCCC1 (stereo not given) | inactive
24 | COc1ccc2[nH]c(=O)c(CNc3ccc(C)c(C)c3)cc2c1 | inconclusive [activator, single point]

Row | SMILES | Potency
25 | COc1ccc2cc(C(=O)NCc3ccco3)c(=O)oc2c1 | inconclusive [activator, partial curve, poor fit]
26 | Cc1ccc(F)c(NC(=O)CCOc2ccccc2C)c1 | inconclusive [activator, single point]
27 | O=C(NNC(=S)NC1CCCCC1)c1ccc2c(c1)OCO2 | inconclusive [activator, full curve, poor fit]
28 | Cc1ccc2c(CN(C)Cc3cccc(F)c3)cc(=O)oc2c1 | inconclusive [activator, full curve, poor fit]
29 | O=C1c2ccccc2C(=O)c2c1cccc2N1CCCC1 | inactive
30 | O=c1[nH]nc(Cc2ccc3ccccc3n2)c2ccccc12 | inconclusive [activator, single point]
31 | O=C(OCC(=O)N1CCc2ccccc2C1)c1ccc(F)cc1Cl | inconclusive [activator, partial curve, poor fit]
32 | COc1cnc(-c2ccccn2)nc1N(C)C | inconclusive [activator, full curve]
33 | COc1ccc(S(=O)(=O)N2CCOC23CCN(S(=O)(=O)c2cccs2)CC3)cc1 | inactive
34 | CC1(C)CCc2cc(S(=O)(=O)N3CCN(S(=O)(=O)c4c(F)cccc4F)CC3)ccc2O1 | inconclusive [activator, full curve, poor fit]
35 | Cc1ccc(S(=O)(=O)N2CCCOC2CNC(=O)C(=O)NCc2ccc3c(c2)OCO3)cc1 (stereo not given) | inconclusive [activator, single point]
36 | Cc1cc(NC(=O)c2ccc(-c3ccccc3[N+](=O)[O-])o2)no1 | inactive
37 | CC(SCc1ccccc1)C(=O)N/N=C/c1cc2c(cc1Br)OCO2 (stereo not given) | inconclusive [activator, partial curve, poor fit]
38 | O=C1N[C@@H](Cc2ccccc2)COC(=O)[C@@H](Cc2ccc(F)cc2)CC/C=C/C[C@@H]1CC(=O)N(CCO)Cc1ccccc1 | inactive
39 | O=C(Oc1ccc2cc(Br)ccc2c1)c1cccnc1 | inactive
40 | CCOC(=O)CCSc1nc(C)c2cc(OC)ccc2n1 | inconclusive [activator, full curve, poor fit]
41 | CCn1cc(C(=O)NC2CCCCCC2)c(=O)c2ccc(C)nc21 | inconclusive [activator, partial curve, poor fit]
42 | CC(C)c1ccc(OCc2ccc(C(=O)N3CCCC3)o2)cc1 | inconclusive [activator, partial curve, poor fit]
43 | Cc1ccc(-c2noc(CSc3nnc(Cc4ccccc4)n3-c3cccc(C)c3)n2)cc1 | inactive
44 | Fc1ccc(-c2cn3ccccc3n2)cc1 | inactive
45 | COC(=O)CCc1sc(Nc2ccccc2)nc1-c1ccc(OC)cc1 | inconclusive [activator, partial curve, poor fit]
46 | Cc1cccc(C(=O)NC(=S)Nc2ccccc2C(F)(F)F)c1 | inconclusive [activator, partial curve, poor fit]
47 | CCOC(=O)C1CCCN(C(=O)c2ccc(C)c(NC(=O)C3=C(C)OCCS3)c2)C1 (stereo not given) | inactive
48 | COc1ccc(S(=O)(=O)Cc2ccc(C(=O)N3CCN(c4cccc(C)c4)C(C)C3)o2)cc1 (stereo not given) | inactive

Row | SMILES | Potency
49 | CCOc1ccc(N2C(=O)CC(Sc3n[nH]c(-c4ccccc4)n3)C2=O)cc1 (stereo not given) | inactive
50 | Cc1ccc(N/N=C(\C#N)C(N)=S)cc1C | inactive
51 | CN(C)CCCN(C(=O)c1ccc(Br)s1)c1nc2cc3c(cc2s1)OCO3 | inconclusive [activator, single point]
52 | O=C(c1c[nH]c(C(=O)C(Cl)(Cl)Cl)c1)c1ccccc1Br | inactive
53 | C=CCn1c(SC(F)F)nc2scc(-c3ccco3)c2c1=O | inconclusive [activator, partial curve, poor fit]
54 | CCc1nnc(NC(=O)/C=C/c2ccco2)s1 | inconclusive [activator, partial curve, poor fit]
55 | CSc1ccc(-c2ccco2)nn1 | inconclusive [activator, partial curve, poor fit]
56 | CN1CCN(c2ccc(C(=O)c3ccc(F)cc3)cc2)CC1 | inconclusive [activator, full curve]
57 | CCOc1ccc2nc(N3C(=O)CNC3=S)sc2c1 | inconclusive [activator, full curve, poor fit]
58 | Cn1c(C(=O)N2CCN(c3ccc([N+](=O)[O-])cc3)CC2)cc2c(=O)[nH]c3ccccc3c21 | inactive
59 | O=C(NCc1ccccn1)c1nc(Cn2ccc([N+](=O)[O-])n2)no1 | inactive
60 | COc1cccc(COC(=O)C2CCN(S(=O)(=O)c3ccc(C)cc3C)CC2)c1OC | inactive
61 | CCc1ccc(OCC(=O)Nc2ccc3c(c2)COC3=O)cc1 | inconclusive [activator, single point]
62 | Cc1cccc(NC(=O)CCS(=O)(=O)c2ccccc2)c1 | inconclusive [activator, partial curve, poor fit]
63 | Brc1ccc(-c2cn3nc4c(nc3n2)CCCC4)cc1 | inconclusive [activator, partial curve, poor fit]
64 | O=C(O)c1cncc(C#CCC2CCCCC2)c1 | inconclusive [activator, single point]
65 | CC(Oc1ccc(Br)cc1Cl)C(=O)Nc1ccncc1 (stereo not given) | inactive
66 | Cc1ccc(S(=O)(=O)NC2CCCC2)cc1C | inactive
67 | COc1ccccc1NC(=O)CN1C(=O)COc2ccc(S(=O)(=O)N3CCC(C)CC3)cc21 | inconclusive [activator, full curve, poor fit]
68 | N#CCn1cc(/C=N/NC(=O)c2cc3c(ccc4ccccc43)o2)c2ccccc21 | inactive
69 | C/C(N)=C(/C#N)C(=O)CSc1nc2ccccc2[nH]1 | inconclusive [activator, partial curve, poor fit]
70 | O=C(O)c1cc(-c2ccc3ccccc3c2)nc2ccc(F)cc12 | inconclusive [activator, full curve, poor fit]
